From PubChem BioAssay AID938 (National Center for Advancing Translational Sciences (NCATS), 2007)
Several values for one entry are separate records, joined by “and”; a condition that tells them apart may be missing. Identical values can stand only once. Screen size: about 73,000 compounds; about 1,800 (2.5%) were called active. The inconclusive results got no clear call from the source; some entries with a clear call stand among them for comparison. The call rests on the fitted dose curve; in most records, active means well fitted activation curve with a large enough effect; inconclusive means small, poorly fitted or top-dose-only effect; inactive means no such curve, though single readings can be large or run the other way. Potencies of inconclusive entries are doubtful fits and often do not repeat. More than one record can exist for a structure, and the calls need not agree.

experiment: qHTS Assay for Agonists of the Thyroid Stimulating Hormone Receptor: Activators of Intracellular cAMP Concentrations in Parental HEK 293; details: parental HEK293 CNG cAMP sensor, membrane potential fluorescence; activation: at 57.1 µM (top of the series); further: nearly all actives have a fitted effect of over 55% in size; on activation: % of control where 0% means no effect
Method in brief: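 Parental HEK 293 cells stably expressing a modified CNG channel (no TSHR) report cAMP rise as membrane depolarization. Membrane potential dye with 100 uM RO 20-1724 was loaded for 60 min at room temperature, then compound added for 30 min; fluorescence read at 590 nm.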
Potency means the concentration at half of the fitted maximal effect; tags describe the fitted curve by direction and shape.

| SMILES | activation | Potency |
| --- | --- | --- |
| C[C@]1(O)CC[C@H]2[C@@H]3[C@@H](O)CC4=CC(=O)CC[C@@]4(C)[C@H]3CC[C@]21C | inactive: 10.3% [at 11.4 µM] |  |
| CN1CC[C@@H]2CN3CCc4cccc(c43)[C@H]2C1 |  | inactive |
| CN1[C@@H]2CC[C@H]1CC(O[C@@H](c1ccccc1)c1ccccc1N)C2 (some centres not stated) |  | inactive |
| CCCc1[nH]nc2c1C(c1cc(OC)cc(OC)c1)C(C#N)=C(N)O2 (configuration not stated) |  | inconclusive: 39.8 µM [activator, single point] |
| CC[C@@H](CO)Nc1nc(NCc2ccccc2)c2ncn(C(C)C)c2n1 |  | inconclusive: 31.6 µM [activator, single point] |
| CCCCN1C(=O)NC(=O)C2(Cc3c(nc4ccccn4c3=O)N3CCc4ccccc4C32)C1=O (configuration not stated) |  | inactive |
| O=c1c2ccccc2[se]n1-c1ccccc1 |  | inactive |
| C(=C\c1ccccc1)/CN1CCN(Cc2ccc3c(c2)OCCO3)CC1 |  | inconclusive: 31.6 µM [activator, single point] |
| N#CS.N=C=S.N=C=S.[Cu].[NH2-].[NH2-].[NH2-].[NH2-].c1ccc2ncccc2c1 |  | inconclusive: 3.16 µM [activator, single point] |
| O=C1CN=C(c2cccs2)c2c(sc3c2CCCC3)N1 |  | inconclusive: 15.8 µM [activator, partial curve] |
| COc1cccc2c1C(=O)c1c(O)c3c(c(O)c1C2=O)C[C@](O)(/C(C)=N\O)C[C@@H]3O[C@H]1C[C@H](N)[C@@H](O)[C@H](C)O1 | inactive: 13.8% [at 11.4 µM] |  |
| O=C(O)c1ccccc1Nc1cccc(C(F)(F)F)c1 |  | inconclusive: 0.199 µM [activator, full curve, poor fit] |
| CC[C@@H]1CN2CC[C@@H]1C[C@H]2[C@@H](O)c1ccnc2ccc(OC)cc12 |  | inconclusive: 25.1 µM [activator, partial curve, poor fit] |
| CCCC[C@@H]1C[C@H]1C(NP(=O)(c1ccccc1)c1ccccc1)c1ccc(Cl)cc1 (some centres not stated) |  | active: 2.51 µM |
| CC(=O)OCC1=C(C(=O)[O-])N2C(=O)[C@@H](NC(=O)CCC[C@@H](N)C(=O)[O-])[C@@H]2SC1.[Zn+2] |  | inactive |
| CCN(CC)C(=O)c1ccc(NC(=O)Cn2nc(C)c3ccccc3c2=O)cc1 |  | inconclusive: 6.31 µM [activator, single point] |
| COc1ccc(C2=NCC(=O)N(CC(=O)NCc3ccco3)c3sc4c(c32)CCCC4)cc1OC |  | inactive |
| CCC(=NCc1cccnc1)c1c(O)n(Cc2ccccc2)c(=O)[nH]c1=O |  | inactive |
| COc1ccc2[nH]c3c(c2c1)CCNC3 |  | inconclusive: 6.31 µM [activator, single point] |
| O=C(NCP(=O)(O)O)c1cccnc1 | inactive: 9.04% [at 11.4 µM] |  |
| c1ccc(N2CCCC3(CCNCC3)C2)nc1 |  | active: 15.8 µM |
| C=C(C)[C@H]1Cc2c(ccc3c2O[C@H]2COc4cc(OC)c(OC)cc4[C@@H]2C3=O)O1 |  | inconclusive: 0.794 µM [activator, full curve] |
| CC(=O)N(C1=NCCCS1)c1ccc(F)cc1 |  | active: 1.58 µM |

| SMILES | activation | Potency |
| --- | --- | --- |
| CCC(=NC(C)c1ccccc1)c1c(O)n(C)c(=O)n(C)c1=O (configuration not stated) |  | inconclusive: 20 µM [activator, single point] |
| N#CC(C#N)=Cc1ccc(O)c(O)c1 |  | inconclusive: 39.8 µM [activator, single point] |
| Cc1nc2cc(F)ccc2n1C1CCN(Cc2nnnn2CCc2ccccc2)CC1 |  | inconclusive: 25.1 µM [activator, partial curve] |
| CN1CC[C@@]2(c3cccc(O)c3)Cc3nc4ccccc4cc3C[C@H]2C1 |  | inactive |
| COc1cc2ccccc2c2cc([N+](=O)[O-])oc12 | inactive: 7.99% [at 11.4 µM] |  |
| COc1cc2[nH]c(=O)n(-c3ccccc3)c(=O)c2cc1OC |  | inactive |
| O=C(NCC(c1cccnc1)N1CCN(c2ccccc2)CC1)Oc1ccccc1 (configuration not stated) |  | inconclusive: 20 µM [activator, single point] |
| C=CC#N |  | inconclusive: 39.8 µM [activator, single point] |
| CC(C)[C@]12CC(=O)[C@H](C)[C@H]1C2 |  | inconclusive: 39.8 µM [activator, single point] |
| Cc1onc(-c2ccccc2Cl)c1C(=O)NCc1ccccn1 |  | inconclusive: 25.1 µM [activator, single point] |
| CC(C)OC(=O)c1c(N)n(CC2CCCO2)c2nc3ccccc3nc12 (configuration not stated) |  | inconclusive: 12.6 µM [activator, partial curve] |
| Cc1nc2ccccc2cc1C[N+]12CN3CN(CN(C3)C1)C2 | inactive: -6.85% [at 11.4 µM] |  |
| Cc1cc(OCC(=O)OC(C)C)c2c3c(c(=O)oc2c1)CCCC3 |  | inconclusive: 15.8 µM [activator, partial curve] |
| COC(=O)[C@@H]1C[C@@H]1[C@@H](NP(=O)(c1ccccc1)c1ccccc1)c1ccccc1 |  | active: 10 µM |
| CO[C@@H]([CH2][Hg])CN1C(=O)c2ccccc2S1(=O)=O.Cn1c(=O)c2nc[nH]c2n(C)c1=O | inactive: 8.82% [at 11.4 µM] |  |
| CCC(=Nc1ccc(OC)cc1OC)c1c(O)n(C2CCCCC2)c(=O)[nH]c1=O |  | inconclusive: 25.1 µM [activator, partial curve] |
| Clc1cccc(CN2CCCCC2c2cccnc2)c1 (configuration not stated) |  | inconclusive: 31.6 µM [activator, single point] |
| N#Cc1ccccc1Cn1cc(C(=O)c2ccco2)c2ccccc21 |  | active: 15.8 µM |
| Cc1ccccc1C1=NCC(=O)N(CC(=O)NCc2ccco2)c2sc3c(c21)CCCC3 |  | inactive |
| O=C(NC[C@H]1CCCCN1)c1cc(OCC(F)(F)F)ccc1OCC(F)(F)F |  | inactive and active: 3.98 µM |
| CCN1CCN(Cc2ccc(OC(F)(F)F)cc2)CC1 |  | inconclusive: 1 µM [activator, full curve, poor fit] |
| OC(COCc1ccc(Cl)cc1)CN1CC=C(c2ccccc2)CC1 (configuration not stated) |  | inconclusive: 10 µM [activator, partial curve] |
| ClC(Cl)=C(c1ccc(Cl)cc1)c1ccc(Cl)cc1 |  | inconclusive: 15.8 µM [activator, full curve, poor fit] and inconclusive: 39.8 µM [activator, single point] |

| SMILES | activation | Potency |
| --- | --- | --- |
| Cc1cccc(-c2nc3ccccc3c(=O)n2-n2cccc2)c1 |  | active: 3.98 µM |
| Cc1sc2ccccc2c1CC1=NCCN1 |  | inconclusive: 0.251 µM [activator, full curve, poor fit] |
| COC[C@@H]1OC(=O)c2coc3c2[C@]1(C)C1=C(C3=O)[C@H]2CCC(=O)[C@]2(C)C[C@@H]1OC(C)=O |  | inactive |
| CCN(CC)C(=O)N[C@@H]1C=C2c3cccc4[nH]cc(c34)C[C@@H]2N(C)C1 |  | inactive and active: 15.8 µM |
| Cc1cc(C(C)(C)C)cc(C)c1CC1=NCCN1 |  | inconclusive: 3.98 µM [activator, single point] and inconclusive: 15.8 µM [activator, single point] |
| COc1ccccc1N1CCN(C(CNC(=O)Oc2ccccc2)c2cccnc2)CC1 (configuration not stated) |  | inconclusive: 15.8 µM [activator, partial curve] |
| O=C1/C(=C\c2ccccc2)C[C@@]2(O)[C@H]3Cc4ccc(O)c5c4[C@@]2(CCN3CC2CC2)[C@@H]1O5 |  | inconclusive: 31.6 µM [activator, partial curve, poor fit] |
| CCCCCC[C@H]1C(=O)O[C@@H](C)[C@H](NC(=O)c2cccc(NC=O)c2O)C(=O)O[C@@H](C)[C@@H]1OC(=O)CC(C)C |  | inconclusive: 1.26 µM [activator, full curve] |
| C[C@]12CC[C@H](O)C[C@@H]1CC[C@H]1[C@H]2CC[C@]2(C)C(=O)CC[C@@H]12 |  | inconclusive: 31.6 µM [activator, single point] |
| COc1ccc(CN2CCN(C(=O)Cc3ccccc3)CC2)c(OC)c1 | inactive: 4.66% [at 11.4 µM] |  |
| Clc1ccc(C(c2ccc(Cl)cc2)C(Cl)Cl)cc1 |  | inconclusive: 39.8 µM [activator, single point] |
| Nn1c(CSc2nc3ccccc3o2)nnc1CSc1nc2ccccc2o1 |  | inconclusive: 20 µM [activator, partial curve] |
| CN(C=O)CP(=O)(O)CN(C)C=O |  | inactive |
| CCCC(c1nnnn1Cc1cccs1)N1CCN(c2nc3ccccc3s2)CC1 (configuration not stated) |  | inconclusive: 15.8 µM [activator, partial curve] |
| CC(C)c1ccc(C(O)(C(=O)O)c2ccc(C(C)C)cc2)cc1 | inactive: 13.8% [at 11.4 µM] |  |
| CN(C)C=O |  | inactive and inconclusive: 39.8 nM [activator, full curve, poor fit] |
| Cc1cc([P+](=O)O)c(C)n1-c1ccc(Br)cc1 |  | inconclusive: 6.31 µM [activator, single point] |
| CCOC(=O)CC(SP(=S)(OC)OC)C(=O)OCC (configuration not stated) | inconclusive: 31.1% [activator] |  |
| CCCn1nc2ccccc2c1P(=O)(N1CCOCC1)N1CCOCC1 |  | inconclusive: 39.8 µM [activator, single point] |
| O=[N+]([O-])c1cc([N+](=O)[O-])c2ccccc2c1 |  | inconclusive: 39.8 µM [activator, single point] |
| CCCCOCCOP(=O)(OCCOCCCC)OCCOCCCC |  | inconclusive: 12.6 µM [activator, full curve, poor fit] |
